For 91 compounds, Potency results are on record in PubChem BioAssay AID360 (National Center for Advancing Translational Sciences (NCATS), 2006).

Structures are written as SMILES. Hit rate of the full screen: of about 48,000 compounds, about 550 (1.1%) were called active. Not shown: some 4% with an inconclusive outcome. No stated cut-off is given here; in the data, active means potency below about 15 µM; inconclusive means mostly about 16 µM to 33 µM; inactive means weaker than that. The list shows a part of the results.
Potency means the concentration at half of the fitted maximal effect.

Sequence of UniProt P04062 (P04062 whole entry, looked up): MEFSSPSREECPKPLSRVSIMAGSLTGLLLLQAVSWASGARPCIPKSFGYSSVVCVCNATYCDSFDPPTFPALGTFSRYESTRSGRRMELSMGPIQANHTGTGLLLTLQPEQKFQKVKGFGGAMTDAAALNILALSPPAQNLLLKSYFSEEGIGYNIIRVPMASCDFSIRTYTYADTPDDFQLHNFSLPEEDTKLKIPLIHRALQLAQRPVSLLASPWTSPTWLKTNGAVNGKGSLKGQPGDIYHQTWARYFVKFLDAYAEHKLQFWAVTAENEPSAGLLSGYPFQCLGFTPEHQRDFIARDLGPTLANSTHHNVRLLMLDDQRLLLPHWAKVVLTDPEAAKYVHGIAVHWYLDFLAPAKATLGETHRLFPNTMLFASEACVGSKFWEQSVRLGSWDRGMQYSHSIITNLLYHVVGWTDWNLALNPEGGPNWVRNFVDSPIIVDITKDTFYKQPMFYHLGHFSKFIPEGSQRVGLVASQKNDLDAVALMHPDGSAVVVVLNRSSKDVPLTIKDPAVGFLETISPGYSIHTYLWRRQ

The experiment has as its target Lysosomal acid glucosylceramidase (Homo sapiens) (UniProt P04062). Briefly: Glucocerebrosidase.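 Further: the screen sought inhibitors.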 The conditions noted are these: purified enzyme, resorufin glucoside fluorescence (screen aimed at inhibitors), 20 min. The gist of the method:
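Normal human glucocerebrosidase (0.2 nM final) was assayed with resorufin β-D-glucopyranoside (30 uM final) in 50mM citric acid/KH2PO4, 10mM sodium taurocholate, 0.01% tween-20, pH 5.9. Compounds were titrated; fluorescence (Ex 548, Em 600) read after 20 min at RT.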
`C=CCNc1nc(NCCN2CCOCC2)nc(N2CCOCC2)n1`: the Potency was inactive: > 76.9 µM.

For `NC(=O)c1nn(-c2ccccc2)nc1NC(=O)CN1CCCCC1`, the Potency was inactive: > 76.9 µM.

Turning to `Cc1ccsc1C1NC(=O)c2ccccc2N1` (stereo unspecified), the Potency was inactive: > 76.9 µM.

With `COc1ccc(NC(=O)Cn2cnc3c(cnn3-c3ccc(C)c(C)c3)c2=O)c(OC)c1`, the Potency is inactive: > 76.9 µM.

Consider `Cn1c(SCC(=O)c2ccc(F)cc2)nnc1-c1cnccn1`, for which the Potency is inactive: > 76.9 µM.

With `O=S(=O)(c1cccc(-c2cn3cccnc3n2)c1)N1CCOCC1`, the Potency is inactive: > 76.9 µM.

Regarding `CCOc1ccc(-c2nc(N)ncc2-c2ccccc2)c(O)c1`, the Potency is inactive: > 76.9 µM.

In the case of `Cc1cccc(OCCNc2nc3c(c(=O)n(C)c(=O)n3C)n2C)c1`, the Potency is inactive: > 76.9 µM.

Regarding `COc1ccccc1C(=O)n1nc(-c2ccco2)nc1N`, the Potency was inactive: > 76.9 µM.

Consider `CN(Cc1c(F)cccc1Cl)c1ccc(S(=O)(=O)N2CCOCC2)cn1`, for which the Potency is inactive: > 76.9 µM.

With `O=S(=O)(c1ccccc1)N1CCSC1c1ccco1` (stereo unspecified), the Potency entry is “inactive”.

Regarding `Cn1nc(C(=O)Nc2cccnc2)c2ccccc2c1=O`, the Potency is inactive: > 76.9 µM.

As for `COc1ccc(N2CCN(C(=O)CCN3C(=O)c4ccccc4S3(=O)=O)CC2)cc1`, the Potency is inactive: > 76.9 µM.

In the case of `COCCCNC(=O)CCS(=O)(=O)Cc1ccc(C)cc1`, the Potency is inactive: > 76.9 µM.

Regarding `CCc1cc(Br)ccc1NC(=O)C1CCCO1` (stereo unspecified), the Potency was inactive: > 76.9 µM.

With `O=C1CC(Sc2nnnn2C2CCCCC2)C(=O)N1c1ccccc1` (stereo unspecified), the Potency is inactive: > 76.9 µM.

As for `O=C(C1CCCN(S(=O)(=O)c2ccccc2)C1)N1CCN(c2ncccn2)CC1` (stereo unspecified), the Potency was inactive: > 76.9 µM.

As for `Fc1ccccc1CCNc1nnnn1-c1ccccc1`, the Potency is inactive: > 15.4 µM.

Regarding `CC(=O)c1cccc(NC(=O)NC(C)c2ccncc2)c1` (stereo unspecified), the Potency is inactive: > 76.9 µM.

Consider `COCCNC(=O)CSc1nc2cc(OC)c(OC)cc2c(=O)n1Cc1ccc(OC)cc1`, for which the Potency is inactive: > 76.9 µM.

With `COc1ccc(N2CCN(C(=O)CSc3nnc4ncccn34)CC2)cc1`, the Potency is inactive: > 76.9 µM.

In the case of `O=C(CSc1nnc(-c2ccccc2)o1)Nn1cnnc1`, the Potency is inactive: > 76.9 µM.

With `O=C1CCCc2c1nc(-c1ccco1)n2O`, the Potency is inactive: > 76.9 µM.

Regarding `CCN(Cc1ccccc1)C(=O)C1CCN(Cc2ccc(OC)c(OC)c2OC)CC1`, the Potency was inactive: > 76.9 µM.

Take `CCOC(=O)c1[nH]c(C)c(C(=O)N(C)Cc2ccccc2)c1C`: the Potency was inactive: > 76.9 µM.

Take `Cc1nnc(Sc2nc3c(c(=O)n(C)c(=O)n3C)n2Cc2ccc(Cl)cc2)s1`: the Potency was inactive: > 76.9 µM.

As to `COc1ccccc1N1CCN(C(=O)CSc2nnc(NC(=O)C3CCC3)s2)CC1`, the Potency is inactive: > 76.9 µM.

On to `O=C(Nc1cccc(C(F)(F)F)c1)c1cccnc1N1CCCC1`, for which the Potency result was “inactive”.

Consider `CCN(CC)CCNC(=O)CS(=O)Cc1nc(-c2ccccc2Cl)oc1C` (stereo unspecified), for which the Potency was inactive: > 76.9 µM.

With `OCc1n[nH]c(CO)n1`, the Potency is inactive: > 76.9 µM.

Turning to `O=C(NC1CCN(C(=O)N2c3ccccc3Sc3ccccc32)CC1)c1ccco1`, the Potency was inactive: > 76.9 µM.

With `Cc1ccccc1NC(=O)CCC(=O)OCCCC(F)(F)C(F)(F)F`, the Potency is inactive: > 76.9 µM.

For the compound `Cc1nc(N2CCN(c3ccccc3)CC2)[nH]c(=O)c1Cc1ccccc1`, the Potency was inactive: > 76.9 µM.

`CC(=O)n1cc(C2C(=O)CCCC2=O)c2ccccc21`: the Potency was inactive: > 76.9 µM.

As for `Cc1ccc(S(=O)(=O)NCCC(=O)OCn2nnc3ccccc3c2=O)cc1`, the Potency is inactive: > 76.9 µM.

Take `COC(=O)CSc1nnc(CSc2nc(C)cc(C)n2)n1Cc1ccco1`: the Potency is inactive: > 76.9 µM.

On to `Cc1onc(-c2ccccc2Cl)c1C(=O)Nc1cccnc1`, for which the Potency is inactive: > 76.9 µM.

Regarding `COC(=O)Nc1cc(C)nc2ccccc12`, the Potency was inactive: > 76.9 µM.

Turning to `CC(C)C(c1nnnn1Cc1ccc2c(c1)OCO2)N1CCN(c2ccccc2)CC1` (stereo unspecified), the Potency is inactive: > 76.9 µM.

In the case of `Cc1cc(NC(=O)Cc2ccccc2)no1`, the Potency was inactive: > 76.9 µM.

`CCOc1cc(C2C3=C(CCCC3=O)NC3=C2C(=O)CCC3)cc(Cl)c1O`: the Potency was inactive: > 76.9 µM.

Take `Cc1nnc(NC(=O)CSc2nnc(-c3ccc(S(=O)(=O)N4CCCC4)cc3)n2C)s1`: the Potency was inactive: > 76.9 µM.

`CCOC(=O)NC1(C(F)(F)F)C(=O)N(Cc2ccccn2)C2=C1C(=O)CC(C)(C)C2` (stereo unspecified): the Potency is inactive: > 76.9 µM.

Turning to `CCOC(=O)c1sc2nc(CC(=O)OC)nc(NCCN3CCOCC3)c2c1C`, the Potency result was “inactive”.

With `Cc1cc(NC(=O)c2cc(-c3ccccn3)nc3ccccc23)no1`, the Potency was inactive: > 76.9 µM.

For `CCOC(=O)Cc1csc(NC(=O)CSc2ncnc3c2cnn3-c2ccccc2Cl)n1`, the Potency is inactive: > 76.9 µM.

In the case of `CCCn1nc2ccccc2c1P(=N)(N1CCOCC1)N1CCOCC1`, the Potency is inactive: > 76.9 µM.

In the case of `O=c1c2cccnc2[nH]c(=S)n1CCC1=CCCCC1`, the Potency was inactive: > 76.9 µM.

As for `COc1ccc(S(=O)(=O)N2CCCC(C(=O)N3CCN(C)CC3)C2)cc1C` (stereo unspecified), the Potency is inactive: > 76.9 µM.

As to `Cc1c(N=Cc2ccc(Cl)o2)c(=O)n(-c2ccccc2)n1C`, the Potency is inactive: > 76.9 µM.

`COc1ccc(-n2c(N3CCN(C)CC3)nc3sc4c(c3c2=O)CCCCC4)cc1`: the Potency is inactive: > 76.9 µM.

On to `Cc1cc(C)c2cc(CN(Cc3nnnn3C3CCCCC3)CC3CCCO3)c(=O)[nH]c2c1` (stereo unspecified), for which the Potency was inactive: > 76.9 µM.

For `CC1(C)NC(=O)N(CCOc2cccc(Cl)c2Cl)C1=O`, the Potency is inactive: > 76.9 µM.

On to `CC(=O)c1ccc(OC(C)C)c(CN2CCCCC2)c1`, for which the Potency was inactive: > 76.9 µM.

As to `CCOc1ccc(NS(=O)(=O)c2ccc3c(c2)oc(=O)n3C)cc1`, the Potency was inactive: > 76.9 µM.

In the case of `CCOC(=O)c1cnc(SCc2nc(N)nc(Nc3ccc(F)cc3)n2)nc1N`, the Potency is inactive: > 76.9 µM.

As to `Cc1cccc(-n2c(O)c(C=Nc3c(C)n(C)n(-c4ccccc4)c3=O)c3ccccc3c2=O)n1`, the Potency is inactive: > 76.9 µM.

For the compound `O=C(NCc1nc2ncc(Br)cc2[nH]1)c1ccccc1`, the Potency is inactive: > 76.9 µM.

For the compound `COc1ccc(S(=O)(=O)N2CCCC2C(=O)Nc2ccc(C)cc2)cc1` (stereo unspecified), the Potency was inactive: > 76.9 µM.

`CC(C)Nc1nnc(SCC(=O)Nc2ccc(F)cc2)s1`: the Potency was inactive: > 76.9 µM.

Consider `N#CC1=C(N)NC(SCC(=O)O)=C(C#N)C12CCCC2`, for which the Potency is inactive: > 76.9 µM.

As to `O=C(NCCN1CCCC1)C1CCN(S(=O)(=O)N2CCC3(CC2)OCCO3)CC1`, the Potency was inactive: > 76.9 µM.

Consider `Cn1c(-c2ccccc2)cnc1SCC(=O)NCc1ccco1`, for which the Potency is inactive: > 76.9 µM.

As for `COc1cc(C(=O)OCC(=O)c2cc(C)n(C)c2C)cc(OC)c1OC`, the Potency is inactive: > 76.9 µM.

`COCCn1c(Sc2nc(C)cs2)nc2c1c(=O)[nH]c(=O)n2C`: the Potency was inactive: > 76.9 µM.

For `CCN(CC)c1ccc(NC(=O)c2ccc(NC(=O)C3CCCO3)cc2)c(C)c1` (stereo unspecified), the Potency result was “inactive”.

In the case of `N#CCCN(CCC#N)c1nncs1`, the Potency was inactive: > 76.9 µM.

With `CN(C)C(=O)CSc1nnc(C23CC4CC(CC(C4)C2)C3)o1`, the Potency is inactive: > 76.9 µM.

Regarding `Cc1oc(C(=O)O)cc1CSc1nnc(-c2ccccc2)n1C`, the Potency is inactive: > 76.9 µM.

On to `CCCN(c1ccc(OCC)cc1)S(=O)(=O)c1ccc2c(c1)CCN2C(=O)CCC(=O)O`, for which the Potency was inactive: > 76.9 µM.

On to `c1ccc(-n2c(SCC3CCCCO3)nnc2-c2cccs2)cc1` (stereo unspecified), for which the Potency was inactive: > 76.9 µM.

For `O=C(Nc1cc(C(F)(F)F)ccc1N1CCCC1)c1ccc2c(c1)OCO2`, the Potency is inactive: > 76.9 µM.

For the compound `COC(=O)CSC1=C(C#N)C(c2ccc(C)cc2)C2=C(CCCC2=O)N1` (stereo unspecified), the Potency is inactive: > 76.9 µM.

In the case of `CCOc1cc2[nH]c(=S)n(CC3CCCO3)c(=O)c2cc1OCC` (stereo unspecified), the Potency is inactive: > 76.9 µM.

For `Cc1cc(NC(=O)c2noc3c2CCCCC3)nn1Cc1ccc(Cl)cc1`, the Potency was inactive: > 76.9 µM.

Regarding `CCN1c2ccccc2-c2nc3ccccc3n2C1c1ccccn1` (stereo unspecified), the Potency is inactive: > 76.9 µM.

`CC(=O)NS(=O)(=O)c1ccc(NC(=O)CCC2CCCC2)cc1`: the Potency was inactive: > 76.9 µM.

For the compound `CC12CCC(C(=O)NCc3cccnc3)(OC1=O)C2(C)C` (stereo unspecified), the Potency is inactive: > 76.9 µM.

As for `c1cncc(-c2nn3cnnc3s2)c1`, the Potency is inactive: > 76.9 µM.

On to `COc1cc(OC)c(C2N(c3cc(C)on3)C(=O)C3CCCN32)cc1OC` (stereo unspecified), for which the Potency is inactive: > 76.9 µM.

On to `O=C(Cn1nnc(-c2ccccc2)n1)c1ccccc1`, for which the Potency was inactive: > 76.9 µM.

For `CCCn1c(SCC(=O)Nc2cccc(C(=O)OC)c2)nnc1-c1cccnc1`, the Potency is inactive: > 76.9 µM.

Turning to `CCOc1ccc(-c2nnc3ccc(SCc4ccc(C(=O)OC)o4)nn23)cc1`, the Potency was inactive: > 76.9 µM.

With `O=C(Cc1ccc(F)cc1)N(c1ccc(F)cc1)C1C=CS(=O)(=O)C1` (stereo unspecified), the Potency is inactive: > 76.9 µM.

In the case of `O=C(c1ccco1)N1CCN(C(=O)C2CCN(S(=O)(=O)c3cnc[nH]3)CC2)CC1`, the Potency was inactive: > 76.9 µM.

As to `CCn1c(SCc2nc(-c3ccc(OC)c(OC)c3)no2)nnc1-c1cccs1`, the Potency is inactive: > 76.9 µM.

Consider `CCCOc1ccccc1C(=O)N(Cc1cccs1)C1CCS(=O)(=O)C1` (stereo unspecified), for which the Potency is inactive: > 76.9 µM.

For the compound `COc1cc(C2NC(=O)NC(O)(C(F)(F)F)C2C(C)=O)cc(OC)c1OC` (stereo unspecified), the Potency is inactive: > 76.9 µM.

Consider `COn1c(=O)c(-c2ccc(Cl)cc2)[n+]([O-])c2ccccc21`, for which the Potency was inactive: > 76.9 µM.

On to `COCC(=O)n1nc(-c2ccccc2)nc1NCc1ccc(F)cc1`, for which the Potency was inactive: > 76.9 µM.

As to `CC(=O)Nc1ccc(-c2ccccc2)s1`, the Potency was inactive: > 76.9 µM.
